# From the supplement of paper PMC8728848
# This is one part of the list.
# Key:
# Assay in all cases: glycan array binding signal (z-score within array); higher = stronger binding
# Settings in all cases: glycan notation: IUPAC condensed, linker removed
# [1] = target: Fuc(a1-2)Gal
# How it was run: (§1)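 Glycan array data came from 3228 arrays in the Consortium for Functional Glycomics database, and only arrays with an available protein sequence were kept. Glycan names were put into IUPAC-condensed notation, and columns mapping to the same glycan were averaged. The binding signal is a within-array Z-score, averaged across arrays of one protein sequence run at different concentrations or buffers and across linkers. A negative Z-score can be read as non-binding.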
# [2] = target: Fuc(a1-2)Gal(b1-3)GalNAc
# How it was run: as §1
# [3] = target: Fuc(a1-2)Gal(b1-3)GalNAc(a1-3)[Fuc(a1-2)]Gal(b1-4)Glc
# How it was run: as §1
# [4] = target: Fuc(a1-2)Gal(b1-3)GalNAc(a1-3)[Fuc(a1-2)]Gal(b1-4)GlcNAc
# How it was run: as §1
# [5] = target: Fuc(a1-2)Gal(b1-3)GalNAc(b1-3)Gal
# How it was run: as §1
# [6] = target: Fuc(a1-2)Gal(b1-3)GalNAc(b1-3)Gal(a1-4)Gal(b1-4)Glc
# How it was run: as §1
# [7] = target: Fuc(a1-2)Gal(b1-3)GalNAc(b1-4)[Neu5Ac(a2-3)]Gal(b1-4)Glc
# How it was run: as §1
# [8] = target: Fuc(a1-2)Gal(b1-3)GlcNAc
# How it was run: as §1
# [9] = target: Fuc(a1-2)Gal(b1-3)GlcNAc(b1-2)Man(a1-3)[Fuc(a1-2)Gal(b1-3)GlcNAc(b1-2)Man(a1-6)]Man(b1-4)GlcNAc(b1-4)GlcNAc
# How it was run: as §1
# [10] = target: Fuc(a1-2)Gal(b1-3)GlcNAc(b1-2)Man(a1-3)[Fuc(a1-2)Gal(b1-3)GlcNAc(b1-2)Man(a1-6)]Man(b1-4)GlcNAc(b1-4)[Fuc(a1-6)]GlcNAc
# How it was run: as §1
# [11] = target: Fuc(a1-2)Gal(b1-3)GlcNAc(b1-3)Gal(b1-4)Glc
# How it was run: as §1
# [12] = target: Fuc(a1-2)Gal(b1-3)GlcNAc(b1-3)GalNAc
# How it was run: as §1
# [13] = target: Fuc(a1-2)Gal(b1-3)GlcNAc(b1-3)[Fuc(a1-2)Gal(b1-3)GlcNAc(b1-6)]GalNAc
# How it was run: as §1
# [14] = target: Fuc(a1-2)Gal(b1-3)GlcNAc(b1-3)[Gal(b1-4)GlcNAc(b1-6)]Gal(b1-4)Glc
# How it was run: as §1
# [15] = target: Fuc(a1-2)Gal(b1-3)GlcNAc(b1-3)[Neu5Ac(a2-6)Gal(b1-4)GlcNAc(b1-6)]Gal(b1-4)Glc
# How it was run: as §1
# [16] = target: Fuc(a1-2)Gal(b1-3)GlcNAc6S
# How it was run: as §1
# [17] = target: Fuc(a1-2)Gal(b1-3)[Fuc(a1-4)]GlcNAc
# How it was run: as §1
# [18] = target: Fuc(a1-2)Gal(b1-3)[Fuc(a1-4)]GlcNAc(b1-2)Man(a1-3)[Fuc(a1-2)Gal(b1-3)[Fuc(a1-4)]GlcNAc(b1-2)Man(a1-3)]Man(b1-4)GlcNAc(b1-4)GlcNAc
# How it was run: as §1
# [19] = target: Fuc(a1-2)Gal(b1-3)[Fuc(a1-4)]GlcNAc(b1-2)Man(a1-3)[Fuc(a1-2)Gal(b1-3)[Fuc(a1-4)]GlcNAc(b1-2)Man(a1-6)]Man(b1-4)GlcNAc(b1-4)[Fuc(a1-6)]GlcNAc(b1-4)[Fuc(a1-6)]GlcNAc
# How it was run: as §1
# [20] = target: Fuc(a1-2)Gal(b1-3)[Fuc(a1-4)]GlcNAc(b1-3)[Fuc(a1-3)[Gal(b1-4)]GlcNAc(b1-6)]Gal(b1-4)Glc
# How it was run: as §1
# [21] = target: Fuc(a1-2)Gal(b1-3)[Fuc(a1-4)]GlcNAc(b1-3)[Gal(b1-4)GlcNAc(b1-6)]Gal(b1-4)Glc
# How it was run: as §1
# [22] = target: Fuc(a1-2)Gal(b1-4)Fuc(a1-3)]GlcNAc(b1-2)Man(a1-3)[Fuc(a1-2)Gal(b1-4)[Fuc(a1-3)]GlcNAc(b1-2)Man(a1-6)]Man(b1-4)GlcNAc(b1-4)GlcNAc
# How it was run: as §1
# [23] = target: Fuc(a1-2)Gal(b1-4)Glc
# How it was run: as §1
# [24] = target: Fuc(a1-2)Gal(b1-4)Glc6S
# How it was run: as §1
# [25] = target: Fuc(a1-2)Gal(b1-4)GlcNAc
# How it was run: as §1
# [26] = target: Fuc(a1-2)Gal(b1-4)GlcNAc(b1-2)Man
# How it was run: as §1
# [27] = target: Fuc(a1-2)Gal(b1-4)GlcNAc(b1-2)Man(a1-3)[Fuc(a1-2)Gal(b1-4)GlcNAc(b1-2)Man(a1-6)]Man(b1-4)GlcNAc(b1-4)GlcNAc
# How it was run: as §1
# [28] = target: Fuc(a1-2)Gal(b1-4)GlcNAc(b1-2)Man(a1-3)[Fuc(a1-2)Gal(b1-4)GlcNAc(b1-2)Man(a1-6)]Man(b1-4)GlcNAc(b1-4)[Fuc(a1-6)]GlcNAc
# How it was run: as §1
# [29] = target: Fuc(a1-2)Gal(b1-4)GlcNAc(b1-2)[Fuc(a1-2)Gal(b1-4)GlcNAc(b1-4)]Man(a1-3)[Fuc(a1-2)Gal(b1-4)GlcNAc(b1-2)Man(a1-6)]Man(b1-4)GlcNAc(b1-4)GlcNAc
# How it was run: as §1
# [30] = target: Fuc(a1-2)Gal(b1-4)GlcNAc(b1-3)Gal(b1-4)GlcNAc
# How it was run: as §1
# [31] = target: Fuc(a1-2)Gal(b1-4)GlcNAc(b1-3)Gal(b1-4)GlcNAc(b1-2)Man(a1-3)[Fuc(a1-2)Gal(b1-4)GlcNAc(b1-3)Gal(b1-4)GlcNAc(b1-2)Man(a1-6)]Man(b1-4)GlcNAc(b1-4)GlcNAc
# How it was run: as §1
# [32] = target: Fuc(a1-2)Gal(b1-4)GlcNAc(b1-3)Gal(b1-4)GlcNAc(b1-3)Gal(b1-4)GlcNAc
# How it was run: as §1
# [33] = target: Fuc(a1-2)Gal(b1-4)GlcNAc(b1-3)GalNAc
# How it was run: as §1
# [34] = target: Fuc(a1-2)Gal(b1-4)GlcNAc(b1-3)[Fuc(a1-2)Gal(b1-4)GlcNAc(b1-6)]GalNAc
# How it was run: as §1
# [35] = target: Fuc(a1-2)Gal(b1-4)GlcNAc(b1-3)[Fuc(a1-3)[Gal(b1-4)]GlcNAc(b1-6)]Gal(b1-4)Glc
# How it was run: as §1
# [36] = target: Fuc(a1-2)Gal(b1-4)GlcNAc(b1-6)GalNAc
# How it was run: as §1
# [37] = target: Fuc(a1-2)Gal(b1-4)GlcNAc6S
# How it was run: as §1
# [38] = target: Fuc(a1-2)Gal(b1-4)[Fuc(a1-3)]GlcNAc
# How it was run: as §1
# [39] = target: Fuc(a1-2)Gal(b1-4)[Fuc(a1-3)]GlcNAc(b1-2)Man(a1-3)[Fuc(a1-2)Gal(b1-4)[Fuc(a1-3)]GlcNAc(b1-2)Man(a1-6)]Man(b1-4)GlcNAc(b1-4)[Fuc(a1-6)]GlcNAc
# How it was run: as §1
# [40] = target: Fuc(a1-2)Gal(b1-4)[Fuc(a1-3)]GlcNAc(b1-2)[Fuc(a1-2)Gal(b1-4)[Fuc(a1-3)]GlcNAc(b1-4)]Man(a1-3)[Fuc(a1-2)Gal(b1-4)[Fuc(a1-3)]GlcNAc(b1-2)Man(a1-6)]Man(b1-4)GlcNAc(b1-4)GlcNAc
# How it was run: as §1
# [41] = target: Fuc(a1-2)Gal(b1-4)[Fuc(a1-3)]GlcNAc(b1-3)Gal(b1-4)[Fuc(a1-3)]GlcNAc
# How it was run: as §1
# [42] = target: Fuc(a1-2)Gal(b1-4)[Fuc(a1-3)]GlcNAc(b1-3)Gal(b1-4)[Fuc(a1-3)]GlcNAc(b1-3)Gal(b1-4)[Fuc(a1-3)]GlcNAc
# How it was run: as §1
# [43] = target: Fuc(a1-2)Gal(b1-4)[Fuc(a1-3)]GlcNAc(b1-3)GalNAc
# How it was run: as §1
# [44] = target: Fuc(a1-2)Gal(b1-4)[Fuc(a1-3)]GlcNAc(b1-3)[Neu5Ac(a2-6)Gal(b1-4)GlcNAc(b1-6)]Gal(b1-4)Glc
# How it was run: as §1
# [45] = target: Fuc(a1-2)Gal3S(b1-4)GlcNAc
# How it was run: as §1
binder,measurement,setting,value
APVPVTKLVCDGDTYKCTAYLDFGDGRWVAQWDTNVFHTG [PhoSpL (Pholiota squarrosa)],glycan array binding signal (z-score),[1],0.241
same,glycan array binding signal (z-score),[2],-0.03
same,glycan array binding signal (z-score),[3],-0.555
same,glycan array binding signal (z-score),[4],-0.011
same,glycan array binding signal (z-score),[5],0.268
same,glycan array binding signal (z-score),[6],-0.073
same,glycan array binding signal (z-score),[7],0.105
same,glycan array binding signal (z-score),[8],-0.281
same,glycan array binding signal (z-score),[9],0.376
same,glycan array binding signal (z-score),[10],1.1
same,glycan array binding signal (z-score),[11],-0.025
same,glycan array binding signal (z-score),[12],-0.435
same,glycan array binding signal (z-score),[13],-0.294
same,glycan array binding signal (z-score),[14],-0.38
same,glycan array binding signal (z-score),[15],-0.053
same,glycan array binding signal (z-score),[16],-0.511
same,glycan array binding signal (z-score),[17],0.022
same,glycan array binding signal (z-score),[18],0.363
same,glycan array binding signal (z-score),[19],0.334
same,glycan array binding signal (z-score),[20],-0.809
same,glycan array binding signal (z-score),[21],-0.343
same,glycan array binding signal (z-score),[22],-0.095
same,glycan array binding signal (z-score),[23],-0.576
same,glycan array binding signal (z-score),[24],-0.213
same,glycan array binding signal (z-score),[25],-0.276
same,glycan array binding signal (z-score),[26],0.107
same,glycan array binding signal (z-score),[27],-0.525
same,glycan array binding signal (z-score),[28],1.39
same,glycan array binding signal (z-score),[29],-0.382
same,glycan array binding signal (z-score),[30],-0.302
same,glycan array binding signal (z-score),[31],-0.166
same,glycan array binding signal (z-score),[32],-0.199
same,glycan array binding signal (z-score),[33],0.002
same,glycan array binding signal (z-score),[34],-0.42
same,glycan array binding signal (z-score),[35],-0.059
same,glycan array binding signal (z-score),[36],-0.46
same,glycan array binding signal (z-score),[37],-0.693
same,glycan array binding signal (z-score),[38],-0.139
same,glycan array binding signal (z-score),[39],0.277
same,glycan array binding signal (z-score),[40],0.131
same,glycan array binding signal (z-score),[41],-0.192
same,glycan array binding signal (z-score),[42],-0.338
same,glycan array binding signal (z-score),[43],0.105
same,glycan array binding signal (z-score),[44],-0.307
same,glycan array binding signal (z-score),[45],0.013
